We go through 41 molecules from ChEMBL document CHEMBL5308541, “MAIP: An Open-Source Tool to Enrich High-Throughput Screening Output and Identify Novel, Druglike Molecules with Antimalarial Activity” (ACS Med Chem Lett, 2023).

Screen size: about 150,000 compounds; about 540 (0.36%) showed an effect of 50% or more. The list shows a part of the results.

In the assay the test system is Plasmodium falciparum. Briefly: Primary screen in NF54 nanoGlo assay, in single point, at 2uM, 72h; a lower Z score goes with more inhibition. To be noted: timepoint 72 hour. It counts as functional, Erythrocyte.
As to `CN1C(=O)c2ccc(S(=O)(=O)N3CCN(C(=O)OC(C)(C)C)CC3(C)C)cc2C1=O`, the “% Inhibition” value is recorded as -4% and the Z score is 0.8.

In the case of `Oc1ccc(-c2ncnc3sccc23)cc1OC(F)(F)F`, the “% Inhibition” value is listed as -4% and the Z score is recorded as 0.85.

Regarding `CN1CCN(CCOc2ccccc2CN(C)Cc2cc3cc(F)ccc3[nH]2)CC1`, the “% Inhibition” value turned out to be 73% and the Z score is on record as -14.51.

Take `C[C@@H](C(=O)N1CCN(c2ccccc2)CC1)N1CCCN(CC(=O)NC(C)(C)C)CC1`: the “% Inhibition” value is reported as -5% and the Z score is given as 0.88.

In the case of `CCc1occc1C(=O)N1CCCCC[C@H](Nc2cc(-n3ccnc3)ncn2)C1`, the “% Inhibition” value is -7% and the Z score is reported as 1.26.

Consider `Cc1nn(-c2ccc(F)cc2)c(C)c1CNc1nccc(N2CCC(O)CC2)n1`, for which the “% Inhibition” value was -16% and the Z score turned out to be 3.14.

Turning to `O=C(c1coc(CN2CCN(C/C=C/c3ccccc3)CC2)n1)N1C[C@H]2CC[C@@H](C1)N2`, the “% Inhibition” value worked out at 2% and the Z score was -0.47.

`CC1CC2CCCCC2N1C(=O)C(=O)Nc1ccc(F)cc1C#N` (configuration not stated): the “% Inhibition” value was found to be 2% and the Z score was -0.34.

`C[C@@H](CN1CCN(c2ccccc2)CC1)NC(=O)NC1CCN(C2CC2)CC1`: the “% Inhibition” value is recorded as 4% and the Z score was -0.63.

For the molecule `COc1ccc2nc3nc(N)ncc3cc2c1`, the “% Inhibition” value is on record as 8% and the Z score is -1.55.

With `OC1(Cc2cc(-c3ccccc3)no2)CCN(Cc2cnc(N3CCOCC3)s2)CC1`, the “% Inhibition” value is reported as -6% and the Z score was determined as 0.98.

With `CCOc1cc(CNc2nnc(-c3cnn(C)c3)o2)ccc1OCC(=O)N1CCCCC1`, the “% Inhibition” value is listed as -12% and the Z score was found to be 2.1.

For the molecule `Cc1nc(NCC(C)(C)c2ccncc2)cc(C(F)(F)F)n1`, the “% Inhibition” value was -1% and the Z score is 0.12.

On to `COCCn1cnnc1CN(C)C(=O)c1ccc2c3c([nH]c2c1)CCCC3`, for which the “% Inhibition” value is -1% and the Z score was 0.3.

Consider `CS(=O)(=O)CCN1CCC(Nc2ccc3cc[nH]c3n2)CC1`, for which the “% Inhibition” value is reported as -4% and the Z score turned out to be 0.77.

`CC1CN(c2cc(C(N)=O)nc(N3CCCOC(C)C3)n2)CCCO1` (configuration not stated): the “% Inhibition” value was -3% and the Z score was found to be 0.49.

`O=C(NCC[C@H]1CCCN(C2CCCCCC2)C1)C1CCNCC1`: the “% Inhibition” value came out at 1% and the Z score is -0.26.

With `Cc1cccc2c(-c3n[nH]c4ncnc(N)c34)c[nH]c12`, the “% Inhibition” value is -3% and the Z score turned out to be 0.47.

On to `COC1CCN([C@H]2CCC[C@H]2NCCC(=O)N2CCN(C)CC2)C1` (some centres not stated), for which the “% Inhibition” value was 1% and the Z score is -0.21.

As to `O[C@H]1CCCC[C@@H]1Nc1ccc(-c2cnn3ncccc23)cn1`, the “% Inhibition” value is listed as -2% and the Z score turned out to be 0.33.

In the case of `CN(C)C1CCN(C(C)(C)CNCc2cnc(N3CCCC3)nc2)CC1`, the “% Inhibition” value is given as -2% and the Z score came out at 0.27.

Take `C[C@H](NC(=O)c1ccc(N2CCC(NCCc3c[nH]c4ccccc34)CC2)cc1)c1ccccc1`: the “% Inhibition” value is on record as -8% and the Z score is 1.48.

With `c1cnc2c(-c3cc(NC4CCCC4)nc4[nH]ccc34)cnn2c1`, the “% Inhibition” value is given as -12% and the Z score turned out to be 2.03.

For the molecule `CON(C)S(=O)(=O)c1cccc(C(=O)Nc2ccc3[nH]c(-c4cc(F)ccc4F)nc3c2)c1`, the “% Inhibition” value is listed as -4% and the Z score was 0.62.

Turning to `CCc1cc(C(=O)N2CCC[C@H](N(C)C(=O)c3cc(F)cc(F)c3)CC2)no1`, the “% Inhibition” value was 10% and the Z score is -1.71.

For `Cc1cc(Nc2nccc(-n3cccn3)n2)ccc1N(C)C`, the “% Inhibition” value is listed as -9% and the Z score is given as 1.64.

`CN1CCN(c2ncc(-c3nc4cccc(Cl)c4[nH]3)cn2)CC1`: the “% Inhibition” value is given as 10% and the Z score is reported as -1.73.

Consider `Cc1ccc(C2(O)CCN(C(=O)C[C@H]3CCCOC3)CC2)nc1`, for which the “% Inhibition” value is reported as 6% and the Z score was -1.25.

With `CC(C)n1cc(CN2CCOc3ccc(CCC(=O)N4CCOCC4)cc3C2)c2ccccc21`, the “% Inhibition” value is on record as -11% and the Z score worked out at 1.94.

As to `O=C(c1ccc2cccnc2c1O)N1CCC[C@H](Nc2cccc(F)c2)C1`, the “% Inhibition” value amounted to 23% and the Z score is -3.54.

As to `O=C(NCCNc1ccnc2ccncc12)c1ccc(C(F)(F)F)cc1`, the “% Inhibition” value is given as 26% and the Z score was -4.62.

Take `Cc1ccc(C(=O)Nc2cccc(C(F)(F)F)c2)cc1NCc1csc(-c2cnn(C)c2)n1`: the “% Inhibition” value is -5% and the Z score turned out to be 1.17.

Take `Cc1n[nH]cc1C1CCN(C(=O)c2ccnn2C(F)F)CC1`: the “% Inhibition” value is -11% and the Z score is 1.62.

With `O[C@H]1C[C@](CNc2ncnc3[nH]ccc23)(c2ccccc2)C1`, the “% Inhibition” value is listed as 11% and the Z score was -1.89.

Regarding `CN(CCn1ccnc1)C[C@@H]1CCCN2CCCC[C@H]12`, the “% Inhibition” value came out at 4% and the Z score is -0.61.

Turning to `O=C(Nc1ccc(Oc2cccnc2)cc1)N1CCN([C@H]2CCNC2)CC1`, the “% Inhibition” value is on record as -5% and the Z score turned out to be 0.86.

For the molecule `COC[C@H](C)Nc1ccccc1NC(=O)c1cccc(Nc2cnccn2)c1`, the “% Inhibition” value was -13% and the Z score is on record as 2.73.

For the molecule `COc1ccc2c(c1)sc1nc(-c3cccc(O)c3)c(Nc3cccc(C)c3)n12`, the “% Inhibition” value is -5% and the Z score was determined as 0.78.

In the case of `CN1CCN(CC2(C)CCN(C(=O)c3cnc4cnccc4c3)CC2)CC1`, the “% Inhibition” value is on record as -7% and the Z score turned out to be 1.08.

For the molecule `N#C[C@H]1CCCN(C(=O)NCC2CCN(CCc3ccccc3)CC2)C1`, the “% Inhibition” value stood at 7% and the Z score was -1.55.

As to `Cc1cccc(-c2nccc(Nc3cccc(C(=O)N4CCC(N5CCCCC5)CC4)c3)n2)c1`, the “% Inhibition” value is given as -5% and the Z score is given as 0.85.
